Experimental data published in the supplement of paper PMC11417369.
This is one part of the list.

Each sequence was assayed on PfHDP1 homeodomain (GST-tagged) (assay: gcPBM binding intensity (ln(normalized median fluorescence intensity)); higher = stronger DNA binding).
Procedure, shortened: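 In this array assay, P. falciparum DNA-binding domains with a GST tag, expressed in E. coli, were applied for 1 h to primer-extended double-stranded 36-bp intergenic genomic probes and negative controls on an Agilent 4 × 180k array. Bound protein was visualised with Alexa488 anti-GST antibody at 488 nm. Binding intensity is the highest Masliner-normalised natural-log median intensity across replicate spots of either probe orientation.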

Sequence | gcPBM binding intensity (ln)
TATTTTTATTTTAATTGTACTTTTTAATTAATAATA [XGTACX_site8302] | 6.35
TACACATACCCATACACACGCATAGAAACATACGAA [CACACA_site5212] | 6.76
TTTCTTTTTTCTGTTATTATTATAAAACGATATTTA [TGCATGCA_negctrl_site167] | 6.49
GCATATAAAATAAATCGTACATGTAAAACATAATTA [XGTACX_site7077] | 6.41
AGATATATTTTTTAAATTTAAAAATTATAAAATTTA [CACACA_negctrl_site533] | 6.13
AAATATATCTTCTTTGCACACTTAAAGGGAAGTGAT [CACACA_site343] | 9.28
TATAATATAATATTTTGTACATATGATAAAAAAAAA [XGTACX_site6858] | 6.38
ACACATATAAATAAAACATGCATATGTAAATATATA [TGCATGCA_site403] | 6.6
TCAAAATGTTACAAATTATGTTGGCTAAAATTTTAA [TGCATGCA_negctrl_site188] | 6.24
TTGAACCTGATAAATACACACAATATAGATTTTTTT [CACACA_site7091] | 6.48
AATTATACTCACGTTACACACACACTATATATATAT [CACACA_site9375] | 8.85
ATACATATTCTTATTTGTACTTATTATAAAATGGTC [XGTACX_site6584] | 6.21
TAACTGATATATAAAACACACATCATAAAAATATAA [CACACA_site6499] | 6.44
ACAATAATTTCCATCACACATATATTTATATATTAC [CACACA_site6003] | 6.52
TTGCATCTACATTTATGTACATATCTTATGATAAAT [XGTACX_site2146] | 6.54
TATATATGTATATATTTTATAAGTATGCAAGAAAAT [TGCATGCA_negctrl_site486] | 7.15
ATATTGGAATAAATTTGTACATATATATATTATTCA [XGTACX_site916] | 6.51
TTTTGTTATATACAATAGATCAGAAGAAATGAAGTT [CACACA_negctrl_site1579] | 6.72
TTATAATATGTATACACACACATATATAAATATATA [CACACA_site2326] | 6.69
CAATGTTAACATATTACACACATATGTATATAGAAT [CACACA_site2732] | 7.08
CTTACGTATTAAGTGTGTCCGTAGTGTTCATAGTTC [XGTACX_site8913] | 6.43
AAAATTTATAAAAGCACACAAAATAAAAAAAAATGA [CACACA_site1491] | 6.9

Sequence | gcPBM binding intensity (ln)
TGTACGAGTCGTAGAGTGCAGTCTGGAGAAGAGTAC [GTGCAC_site9684] | 6.86
AAAGTAAATTTAAGCACACACAACGAATTTTTATAC [CACACA_site1959] | 6.84
TTTCAATAATAAAAAACACACACAAAAAAAAATAAT [CACACA_site8905] | 7.27
AAAAATATAAACACCAGTACACAAACCTATAATGGA [XGTACX_site3846] | 6.79
ACATAATGCTAGACACGTACGTACATCCGTGAGGTT [XGTACX_site4156] | 6.52
GTAAAAGAACGGCATGCATGAAAAATATTACACATG [TGCATGCA_site143] | 6.84
TGAACTCAACAAAGGGTGCATAACAAAAATAGACGT | 8.77
TTATTATTATATTCTACATGCAGTTTGTGTAGAACA [TGCATGCA_site455] | 6.43
AATATATGGTTTCATGATATTAAATACAATTTAATG [CACACA_negctrl_site1503] | 5.88
CTATAATTATGATGAAGTACATATGAGTTCAAAAAA [XGTACX_site3070] | 6.57
ATATATATATGTATATGTACTTATATTATTGTTTGT [XGTACX_site1466] | 8.71
ATTATAATTACTCTAGTGCATTATAAATATGAATAA | 9.79
CTCAAATTTATTAGTGGTACATAACCAAGGAAATAA [XGTACX_site225] | 6.46
AAGTTATTTATATATACACACAAATATAAATAATAT [CACACA_site1228] | 6.59
AGGACAAGGGTTACATGTACATATATATATATATAT [XGTACX_site901] | 9.22
ATAAATAAAAATAGAACACACATATGTTTTTTTTTT [CACACA_site3556] | 6.22
TTAATTGAAACTTATTGTACTTTTTTTTTTTTTTTT [XGTACX_site8162] | 6.48
CCTAGAAAAAAGAACTGTACATATATATATAAATAT [XGTACX_site1680] | 6.65
ATATGCAGAGACTGTTTGCACTTTTTTATTTTATGT [GTGCAC_site9695] | 7.95
TGAAAAAATATAATTTGTACATATCAGGCAAAAATG [XGTACX_site1824] | 6.31
ATATATATTATATATTGTACATATTATATTCATTAT [XGTACX_site1766] | 6.77
TTTATTAATTTATAGTGTACATATTAATAATATATT [XGTACX_site7949] | 6.36

Sequence | gcPBM binding intensity (ln)
ATAAATTATATTATTGAACACACGTTTGGTAATGTT [CACACA_site2662] | 6.33
AAAAAAATAATAAAAAGTACAAAATGTAGAAAATGT [XGTACX_site5018] | 7
AAAAAATAAAACATATATAATATATAATATATATAT [GTGCAC_negctrl_site447] | 8.17
AATGTGAAAACGTGTACACATTTTATTTAATTTATC [CACACA_site5966] | 6.62
AAAATTGATATATGCACACATATATATATTAAATAT [CACACA_site763] | 10.1
AAAAAAAAAAAAAACACACATACACATATATTTTTA [CACACA_site3893] | 6.63
TTTCATTCTGGTATCACACATTTATTTTCTAGTTTA [CACACA_site4286] | 6.59
TTTTTTTTTATAGCTAAACACACATAAGAATATATG [CACACA_site8282] | 6.21
AGTTATAATAAAAAATGTACGTATTATCATTAAGAA [XGTACX_site4244] | 6.39
TATAAATATAAAAGGAGTACAAATATATATATATAT [XGTACX_site1386] | 9
GAAAATAAAAAATATGAACACACATATATAACAAAA [CACACA_site7975] | 6.97
TCCTAATATATGTATGCACACACAATATATACATAT [CACACA_site9111] | 9.24
AAAAAAATTAAACATACACACGTTACTATTTTTATA [CACACA_site5009] | 6.15
AACAAGGCCCGGTACTGTACATTTTTTCATAACATT [XGTACX_site6134] | 6.05
TATATACATATATACACACACATATATTATATATAT [CACACA_site275] | 7.06
GTATGTATATTTATCTGTACATATTTATGTATTCTT [XGTACX_site2112] | 6.35
AGGAAAAAATCGAGTAGTACACATTTAGAAATATAA [XGTACX_site8019] | 6.53
AAAATATAAATTCATGTGCACATATATATTTTGTTA [GTGCAC_site9782] | 10.7
ATATCACATATATATATATATATATATATATATATA [XGTACX_negctrl_site463] | 9.51
TTTAAACCTTAATATTGTACGCAAAAAAAAAAAGAA [XGTACX_site3757] | 6.59
TATTAATAATTAAGTTGTACATTAATTAATATACTG [XGTACX_site6994] | 6.25
TTTAATATTAATAATTGTACATTTTCATAAATACGC [XGTACX_site2837] | 6.37

Sequence | gcPBM binding intensity (ln)
TTATTAATTTATAAATGTACGAATTTTTTATTTAAC [XGTACX_site7605] | 6.37
CATATCAATAATATCACACATATATGTGATTTTATT [CACACA_site5053] | 6.41
CCCCTTAATTAAAGGAGTACTATTTGTGAATAATAT [XGTACX_site4715] | 6.93
TTTATGTAGGAACTAACACACATTGTAAGATTCAGA [CACACA_site1998] | 6.08
GGAACTTTTGGAGGTGCATGCGGAGCAATCTTTTCA [TGCATGCA_site454] | 8.33
GAAGGAAATAAATCAACACACATATATTATAGATAT [CACACA_site7095] | 6.39
ATAATGTAAAATAAATGTACGCAATATATAAAAAAT [XGTACX_site5747] | 6.89
TATTGAAAGTGAATTATAACATTAAAAATATATATA [TGCATGCA_negctrl_site566] | 6.21
CAATATAAAAGACACACACACAAACATATATTTATA [CACACA_site7697] | 6.91
TGAATATGTAAATGCACACCAAAAAAAAAAAAAAAA [CACACA_site3566] | 9.97
TTCTTAATACAAATATGTACATATATATATATATAT [XGTACX_site757] | 9.41
ACGAATATAGGATGTTTGCACTGTACCAATAAATGA [GTGCAC_site9808] | 8.31
ACCTATTTCAAACACACACACACACCCACAAACATA [CACACA_site977] | 7.37
TCATTTTAAGGAAAAAGTACAAAATAATATGTTCCT [XGTACX_site1903] | 6.11
AATAGAAAAAAAAAATGTACAAAATGTTTATAAAAA [XGTACX_site4635] | 6.34
GATGTGTAAATAAGGATATATAACAATCAACAAAAC [XGTACX_negctrl_site494] | 7.11
AAATGAATATAAAATATACACACTTATATATTGAAT [CACACA_site202] | 6.28
AAATTACCCTTGTGTACACATATATTATCTGTATTA [CACACA_site4514] | 8.02
AAAAAATTTTAATATGCATGTAATTTTGCTTTTTCA [TGCATGCA_site1044] | 6.19
TAATATAGGGGTGTTCAAATAAATTTTGTTATTTTT [CACACA_negctrl_site1203] | 6.76
AGCACGCACAGACACACACACATATTTATATTTATA [CACACA_site6291] | 7.62
AAATAGAAAAAATATACACACACTTATTAAATAAAA [CACACA_site3313] | 6.49
